In PubChem BioAssay AID1468 (National Center for Advancing Translational Sciences (NCATS), 2008):
Out of some 280,000 compounds screened, about 1,100 (0.39%) were called active. The shares of active, inactive and inconclusive entries below differ from those in the screen. The call rests on the fitted dose curve; in most records, active means well fitted inhibition curve with a large enough effect; inconclusive means small, poorly fitted or top-dose-only effect, or effect the other way; inactive means flat fitted curve, though single readings scatter. Potencies of inconclusive entries are left out as doubtful fits.

Target: Microtubule-associated protein tau (Homo sapiens) (UniProt P10636)
Chain of UniProt P10636 (P10636 whole entry, looked up): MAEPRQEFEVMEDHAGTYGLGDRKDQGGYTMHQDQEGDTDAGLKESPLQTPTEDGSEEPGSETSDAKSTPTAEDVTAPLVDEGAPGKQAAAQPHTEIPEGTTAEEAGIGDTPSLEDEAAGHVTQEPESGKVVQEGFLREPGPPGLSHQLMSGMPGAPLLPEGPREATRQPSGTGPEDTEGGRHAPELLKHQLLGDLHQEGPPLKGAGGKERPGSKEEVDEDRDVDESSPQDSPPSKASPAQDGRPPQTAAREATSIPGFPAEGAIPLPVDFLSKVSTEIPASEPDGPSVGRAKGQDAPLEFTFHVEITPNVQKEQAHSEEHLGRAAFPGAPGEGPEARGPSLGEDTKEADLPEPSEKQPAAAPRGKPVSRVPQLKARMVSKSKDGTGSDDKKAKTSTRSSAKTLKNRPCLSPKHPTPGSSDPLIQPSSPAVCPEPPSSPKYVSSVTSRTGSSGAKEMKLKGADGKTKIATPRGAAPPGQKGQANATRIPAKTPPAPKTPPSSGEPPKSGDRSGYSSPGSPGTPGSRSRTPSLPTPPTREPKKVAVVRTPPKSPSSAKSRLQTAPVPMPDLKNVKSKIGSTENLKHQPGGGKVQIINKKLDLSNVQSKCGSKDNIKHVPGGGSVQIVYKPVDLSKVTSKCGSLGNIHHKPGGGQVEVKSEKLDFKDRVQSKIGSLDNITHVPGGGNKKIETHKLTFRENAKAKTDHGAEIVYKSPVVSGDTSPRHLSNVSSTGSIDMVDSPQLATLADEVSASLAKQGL
Experiment: qHTS for Inhibitors of Tau Fibril Formation, Fluorescence Polarization; further: nearly all actives have a fitted effect of over 55% in size
Details: K18 P301L tau heparin fibrillization, Alexa594 FP, 6 h; series mostly up to 57.7 µM
Method in brief: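 Recombinant K18 P301L […], labeled with Alexa 594 at 0.24 uM over 15 uM unlabeled; heparin inducer 20 uM final; 37 C, 6 hr; FP endpoint.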
On the % scale 0 is the no-effect control and ±100 the full control effect; potency means the concentration at half of the fitted maximal effect; tags describe the fitted curve by direction and shape.

Compound | Potency | activity, negative = inhibition
C=CCOc1c(Br)cc(/C=N/Nc2ccc(C(=O)O)cc2)cc1OCC | inconclusive [activator, partial curve, poor fit] | 
CC(/C=N/NC(=O)Cc1cccn1C)=C\c1ccco1 | inconclusive [inhibitor, single point] | 
S=C(NNc1ccc2ccccc2c1)NC1CCCCC1 | inconclusive [inhibitor, single point] | 
CSc1nnc(CNC(=O)C23CC4CC(CC(C4)C2)C3)n1Cc1ccccc1 | inactive | 
CC(=O)c1sc(NC(=O)C2(F)C(F)(F)C(F)(F)C(F)(F)C(F)(F)C2(F)F)nc1C | inconclusive [inhibitor, partial curve, poor fit] | 
O=C(NNc1cc(Br)c(O)c(Br)c1)c1ccccc1 | active: 15.8 µM | 
COc1cc(NC(=O)Cn2c(=O)n(Cc3ccco3)c(=O)c3sc4ccccc4c32)cc(OC)c1 | inconclusive [inhibitor, partial curve, poor fit] | 
COc1ccc(NS(=O)(=O)c2cc(NC(=O)c3cc(=O)c4ccccc4o3)ccc2OC)cc1 | inconclusive [inhibitor, partial curve] | 
Cc1cc(-c2ccc(C)c(S(=O)(=O)N3CCN(c4cccc(C(F)(F)F)c4)CC3)c2)on1 | inconclusive [inhibitor, partial curve, poor fit] | 
CCOc1ccc(C(=O)CCN2CCCCCC2)cc1 | inconclusive [activator, partial curve] | 
Cc1nc2cc(-c3ccsc3-n3c(C)ccc3C)[nH]n2c(=O)c1Cl | inconclusive [inhibitor, single point] | 
Cc1ccc(N2CCN(C(=O)c3c(C)oc4ncn(CC(C)C)c(=O)c34)CC2)c(C)c1 | inactive | 
Cc1cccc(NC(=O)CSc2ncc3c(n2)-c2ccccc2N(Cc2ccc(F)cc2)S3(=O)=O)c1C | inconclusive [inhibitor, partial curve] | 
Cc1[nH]n(-c2cccc(Cl)c2)c(=O)c1-c1ccccc1 | inconclusive [activator, full curve, poor fit] | 
CC(C)=CCC/C(C)=C/CO/N=C1/C[C@@H](O)[C@@H](O)[C@@H]2[C@@H]3C(=O)N(C4CCCCC4)C(=O)[C@H]3CC[C@@H]12 |  | inactive: -1.3% [at 11.6 µM]
CCCC1=Nc2cc(C(=O)NCc3ccc(OC)cc3)ccc2Sc2ccc(C)cc21 | inactive | 
Nc1nonc1-n1nnc(C(=O)N/N=C/c2ccccc2Cl)c1CSc1ccccc1 | inconclusive [inhibitor, partial curve] | 
